Structures are written as SMILES. About 420 (8.8%) of roughly 4,800 compounds showed an effect of 50% or more. The list shows a part of the results.

For orientation: % Inhibition means the relative decrease from the control value, in per cent.

In this experiment the test system is Plasmodium falciparum. In words: Confirmatory screen in NF54 nanoGlo assay, in single point, at 2uM, 72h. It is filed as functional, Erythrocyte. The following applies: timepoint 72 hour.
As for `Cc1ccc2nc(C3CC3)cc(C(=O)N3C[C@@H](O)C[C@H]3CO)c2c1`, the “% Inhibition” value is on record as -4%.

Consider `Cn1cc(-c2noc(-c3cccc(C#N)c3)n2)ccc1=O`, for which the “% Inhibition” value amounted to 3%.

As to `CCOC(=O)c1nc(-c2ccc(N3CCCCC3)nc2)no1`, the “% Inhibition” value stood at 6%.

In the case of `CCCN(Cc1nnc(-c2ccccc2)o1)S(=O)(=O)c1cnn(C(F)F)c1C`, the “% Inhibition” value is recorded as -10%.

Regarding `CC(C)(C(=O)Nc1nccs1)c1cccnc1`, the “% Inhibition” value was -2%.

Consider `Cc1ccc(C)n1-c1ccc(Cl)c(C(=O)NC[C@H]2COCCO2)c1`, for which the “% Inhibition” value is on record as -4%.

As for `Cc1cccc(C)c1OCC(=O)Nc1ccc(-c2nc3cc4ccccc4cc3[nH]2)cc1`, the “% Inhibition” value is listed as 10%.

Turning to `O=C(NCCc1ccccc1)N1CC[C@@]2(C1)Nc1cccnc1N=C2NC1CCCC1`, the “% Inhibition” value is -8%.

On to `CCOc1ccc(-n2c(CN3CCN(C(=O)c4ccco4)CC3)nc3ccccc3c2=O)cc1`, for which the “% Inhibition” value is reported as 3%.

In the case of `C#CCNC(=O)[C@H](C#N)c1nc(C)c(C)s1`, the “% Inhibition” value is recorded as 3%.

As for `CCOc1ccc(NC(=O)N(Cc2cn(C)c3ccccc23)C2CCCCC2)cc1`, the “% Inhibition” value is given as -6%.

For `O=C(CNC(=O)COc1ccccc1)NCC1(O)CCCCCC1`, the “% Inhibition” value is on record as -5%.

Turning to `CC(C)N1CC[C@H](c2nnc3n2CCN(S(=O)(=O)c2ccccc2Cl)C3)C1`, the “% Inhibition” value is reported as -3%.

For `Cc1ccc(Cn2ccn3nc(-c4ccc5c(c4)OCO5)cc3c2=O)cc1C`, the “% Inhibition” value was -9%.

Turning to `Cc1nc2cc(OCc3ccccc3)ccc2n1C`, the “% Inhibition” value was determined as 2%.

For `COc1ccc2cc3n(c2c1)C[C@](C(=O)NC1CCCCCC1)(c1ccccc1)N(Cc1cccc(C)c1)C3=O`, the “% Inhibition” value was -15%.

For the compound `CCC(C)(C)NCC(=O)Nc1cc(F)ccc1F`, the “% Inhibition” value is on record as -13%.

As to `CN(C)S(=O)(=O)N(CCN1CCCC1)[C@H]1CCN(C(=O)CCCc2ccccc2)C1`, the “% Inhibition” value was found to be 1%.

As to `O=C(Nc1ccccc1)c1cc(C(=O)Nc2ccccc2)cc(C(=O)Nc2ccccc2C(=O)O)c1`, the “% Inhibition” value came out at 15%.

As for `COc1cccc(N2CCN(C3=NC(=O)[C@@H](C#N)C4(CCCC4)N3)CC2)c1`, the “% Inhibition” value is listed as 2%.

Regarding `CN1CCN(Cc2cc3cc4c(cc3nc2-c2ccc(Cl)cc2)OCO4)CC1=O`, the “% Inhibition” value came out at 53%.

With `COC(=O)Nc1ccc(Cl)cc1F`, the “% Inhibition” value was found to be 4%.

Take `COc1ccc(CN(c2ccccc2)S(=O)(=O)c2ccc3nncn3c2)cc1`: the “% Inhibition” value was -3%.

As for `CCc1ccc2c(c1)c(-c1ccc(Cl)cc1)c(C(=O)N1CCN(c3cccc(Cl)c3)CC1)n2C`, the “% Inhibition” value was -17%.

For `Cc1cccc(NC(=O)CS(=O)(=O)Cc2cc(Cl)cc3c2OCOC3)c1C`, the “% Inhibition” value is listed as -10%.

As for `Cc1cccnc1C(=O)N1CC(n2cnnc2[C@@H]2CCCO2)C1`, the “% Inhibition” value is -2%.

Turning to `O=C(Nc1ccccc1)C1=NN(CC(=O)N2CCCCC2)C(=O)CC1`, the “% Inhibition” value was -9%.

In the case of `Cc1ccccc1NC(=O)c1cnn2c3c(cnc12)CCCCCC3`, the “% Inhibition” value is given as 2%.

With `Cc1nn(C)cc1S(=O)(=O)N1CCC[C@@H]1CCc1ccccn1`, the “% Inhibition” value is on record as -12%.

As to `COc1ccc(CN2C(=O)c3cc4ccc(OC)cc4n3C[C@]2(C(=O)NC2CCCCCCC2)c2ccccc2)cc1`, the “% Inhibition” value is reported as -8%.

`COc1cccc(N2CCN(C(=O)c3cn4cc(-c5ccc(Cl)cc5)ccc4n3)CC2)c1`: the “% Inhibition” value is recorded as 0%.

With `O=C(Nc1ccsc1C(=O)NC1CCCCC1)c1cnccn1`, the “% Inhibition” value was determined as 4%.

Take `Cc1cc(C(=O)NCCCS(N)(=O)=O)c(Cl)cc1F`: the “% Inhibition” value is recorded as -10%.

As for `O=c1[nH]c2cc(Cl)c(S(=O)(=O)Cl)cc2[nH]1`, the “% Inhibition” value came out at 1%.

Take `NC(=O)c1cccc(CNc2ccc(-n3cncn3)c(Cl)c2)c1`: the “% Inhibition” value is given as -4%.

Turning to `O=C(NC1CCCNC1=O)NC1CCCC1c1ccc(Cl)cc1` (stereo not given), the “% Inhibition” value was found to be 3%.

Regarding `CC(C)c1ccc(N2CCN(C(=O)c3ccc(C(F)(F)F)cc3)[C@@H](C)C2=O)cc1`, the “% Inhibition” value is on record as -1%.

Turning to `Cc1nc2c(c(=O)[nH]1)NC(=O)[C@H](CC(C)C)N2`, the “% Inhibition” value is recorded as -6%.

Turning to `CCCCCNC(=O)NCc1ncoc1C`, the “% Inhibition” value is listed as -1%.

On to `CC(C)(C)OC(=O)N1C2CCC1CC(CC(=O)NC1CCCC1)C2` (stereo not given), for which the “% Inhibition” value turned out to be 8%.

On to `N#Cc1cc(N2CCc3ccccc3C2)nc2ccccc12`, for which the “% Inhibition” value turned out to be 2%.

For `Cc1cc(C(=O)Nc2cc(Br)c(=O)n(C)c2)no1`, the “% Inhibition” value was -14%.

Turning to `CN(Cc1nccn1C)C(=O)c1cc2ccccc2[nH]1`, the “% Inhibition” value was 5%.

`C[C@@H](C1CCCC1)N1C(=O)NC(CC(F)(F)F)C1=O` (stereo not given in full): the “% Inhibition” value is -8%.

`O=C(O)[C@@H]1CN(S(=O)(=O)c2cc3ccccc3o2)c2ccccc21`: the “% Inhibition” value is reported as 3%.

Turning to `CCCn1c(C)cnc1C1CN(S(=O)(=O)c2cc(Cl)ccc2Cl)C1`, the “% Inhibition” value was -7%.

For `CCCN(CCC)C(=O)CCC(=O)N[C@]1(C(F)(F)F)CCc2ccccc21`, the “% Inhibition” value amounted to 15%.

For the compound `C#CC[C@H](OC(=O)c1nc(-c2cnn(C)c2)oc1C)C(C)(C)C`, the “% Inhibition” value was -10%.

Take `CCc1cc(O)nc(CN2CCCC2C(O)C(F)(F)F)n1` (stereo not given): the “% Inhibition” value is -6%.

Consider `O=S(=O)(N[C@@H](Cn1cnc2ccccc21)c1ccc(F)cc1)c1cc(F)c(F)cc1F`, for which the “% Inhibition” value was -2%.

With `C[C@@H](CNC(=O)c1ccc(Cl)c(-n2cnc3cccnc32)c1)c1ccccc1`, the “% Inhibition” value is on record as -1%.

As to `Cc1ccc(S(=O)(=O)c2ccc3c(c2)Oc2ccccc2N3)cc1`, the “% Inhibition” value is given as -10%.

With `Cc1c(C)c2ccc(NC(=O)c3cc4ccccc4o3)cc2[nH]c1=O`, the “% Inhibition” value was 74%.

Consider `COc1ccc(OC)c([C@H](C)NC(=O)N2CCS(=O)(=O)CC2)c1`, for which the “% Inhibition” value was -3%.

`Cc1c([C@@H](NCc2ncccc2O)C(C)C)oc2ccccc12`: the “% Inhibition” value is on record as 99%.

Take `O=C(CCn1ccc2cc(S(=O)(=O)N3CCCCC3)ccc21)N1CCN(c2ccccc2F)CC1`: the “% Inhibition” value was -3%.

As for `CC1(C)COC(=O)[C@H]1OCN1CCCC1=O`, the “% Inhibition” value is -3%.

Consider `Cc1cc(F)c(C(=O)Nc2nc(-c3cnn(C)c3)cs2)cc1F`, for which the “% Inhibition” value is -9%.

For `CC[C@H]1Cn2c(C(=O)NCc3cccs3)cc3c(Cl)ccc(c32)O1`, the “% Inhibition” value is on record as -4%.

On to `CN(Cc1ccccc1)C(=O)C[C@H]1CCN(C(=O)NC2CCCCC2)C1`, for which the “% Inhibition” value is reported as -5%.

`O=C(c1cc(Br)c(C(=O)N2CCCC2)cc1Br)N1CCCC1`: the “% Inhibition” value is recorded as -13%.

For `C=Cn1cc[n+](CC(=O)c2ccc(-c3ccccc3)cc2)c1`, the “% Inhibition” value is 48%.

For the compound `Clc1ccc(Cl)c(-c2ccc(CNn3cnnc3)o2)c1`, the “% Inhibition” value worked out at 1%.

In the case of `O=C(C[C@H]1CCc2nnc(C3CCOCC3)n2CC1)Nc1ccc(Cl)cc1F`, the “% Inhibition” value is listed as -8%.

For the compound `O=C(Nc1ccccc1)Nc1nc2c(s1)CCCCCCCCCC2`, the “% Inhibition” value is reported as -6%.

Regarding `Cc1ccc(NC(=O)CC2CC3CCC2C3)c(Br)c1` (stereo not given), the “% Inhibition” value came out at 7%.

`C[C@H]1CCCCN1C(=O)CN1CCN(c2nccn3cnnc23)CC1`: the “% Inhibition” value is reported as -5%.

Take `O=C(CCCc1ccccc1)Nc1cc(C2CC2)nn1-c1nc(-c2ccccc2)cc(=O)[nH]1`: the “% Inhibition” value is 48%.

Take `Cn1c2cn(-c3ccc(F)cc3)c(-c3ccccc3)c2c(=O)n1-c1ccccc1`: the “% Inhibition” value is given as -1%.

Take `CN1CCC(NC(=O)c2cnc(-c3ccc4c(c3)OCO4)nc2Nc2ccc(F)cc2)CC1`: the “% Inhibition” value stood at 19%.

With `CS(=O)(=O)N1CCc2cc(S(=O)(=O)N3CCC(c4ccccc4)CC3)ccc21`, the “% Inhibition” value came to 0%.

Consider `Cc1cc(OC(=O)[C@H]2CC(=O)N(c3ccc4ccccc4c3)C2)c(C(C)C)cc1NC1=NS(=O)(=O)c2ccccc21`, for which the “% Inhibition” value was -2%.

As for `CCNc1ccnc(NCc2nc(-c3cccc(F)c3)c(-c3ccccn3)[nH]2)n1`, the “% Inhibition” value was 30%.

`Cc1ncccc1C(=O)Nc1cccc(Oc2cccnn2)c1`: the “% Inhibition” value is listed as 1%.

Consider `O=C(NCc1ccco1)c1cc2c(Cl)ccc3c2n1CCO3`, for which the “% Inhibition” value is reported as -1%.

Take `O=C(NCc1c(O)ccc2c1CCCC2)c1ccc2nncn2c1`: the “% Inhibition” value is recorded as -18%.

As for `COc1ccc(C(=O)n2nc(Nc3ccccc3Cl)cc2Nc2ccccc2Cl)cc1`, the “% Inhibition” value came out at 7%.

As for `COc1ccc(S(=O)(=O)N2CCC(C)(C(=O)NCc3ccc4c(c3)OCO4)CC2)cc1OC`, the “% Inhibition” value is reported as 0%.

Take `CCN(C)CCN(CC)C(=O)CCc1cc2c(n1-c1ccc(OC)cc1)-c1ccccc1CC2`: the “% Inhibition” value was 15%.

Consider `COc1ccc([C@H](CNC(=O)c2ccccc2)N2CCC(c3ccccc3)=N2)cc1`, for which the “% Inhibition” value was -3%.

In the case of `CN1CCN(c2nc(-c3cccc(C(F)(F)F)c3)nc3c2cnn3Cc2ccccc2)CC1`, the “% Inhibition” value is -4%.

As to `Cn1c(-c2ccccc2)cn2cc(-c3ccc(Cl)cc3)nc12`, the “% Inhibition” value was 7%.

As for `Cc1ncsc1C=Cc1ncc(C(=O)O)c(C(C)C)n1`, the “% Inhibition” value is on record as -17%.

On to `Cc1nn(C2CCCC2)c2nc(-c3cc(CN(C)C)cs3)[nH]c12`, for which the “% Inhibition” value is -4%.

Turning to `Cc1c(N[C@@H](C)C2CCOCC2)cccc1C(N)=O`, the “% Inhibition” value is listed as -2%.

Regarding `CCOC(=O)C1CCC(CN(Cc2ccc(OC)cc2)S(=O)(=O)c2cc(C(=O)Nc3ccc(OCC)cc3)ccc2F)CC1` (stereo not given), the “% Inhibition” value is recorded as 50%.

Turning to `Cc1c(NC(=O)CC(C)(C)CC(=O)N2CCN(c3ccccc3F)CC2)c(=O)n(-c2ccccc2)n1C`, the “% Inhibition” value is 2%.

With `Cc1ccnc(N[C@H](c2cccs2)c2cc(C)sc2NC(=O)c2ccccc2)c1`, the “% Inhibition” value is -3%.

For the compound `Cc1cc2sc(-c3ccccc3)c([O-])[n+]2cn1`, the “% Inhibition” value was found to be 0%.

Consider `CNCCCNC(=O)c1ccc(Br)cc1C`, for which the “% Inhibition” value stood at 5%.

`N[C@@H](C(=O)Nc1nnc(Cc2ccsc2)s1)c1ccccc1`: the “% Inhibition” value was found to be 2%.

In the case of `O=C(Cn1cnc2nc(N3CCCCC3)sc2c1=O)Nc1cc(Cl)cc(Cl)c1`, the “% Inhibition” value is on record as -3%.

In the case of `O=C(NCCCn1cccn1)c1cncc(Br)c1`, the “% Inhibition” value was -2%.

As for `CNC(=O)[C@H]1CN(S(=O)(=O)c2cccs2)CC12CCCCC2`, the “% Inhibition” value is listed as -11%.

On to `Cc1cc(NC(=O)Cn2c(=O)n(CC(C)C)c(=O)c3sccc32)no1`, for which the “% Inhibition” value is listed as -13%.

For `CC(NS(C)(=O)=O)C(=O)N1CCC(F)(c2cc(F)cc(F)c2)C1` (stereo not given), the “% Inhibition” value is listed as -1%.

Turning to `CC1(C)CC[C@H](CNC(=O)c2cnn(-c3ccc(F)cc3)n2)O1`, the “% Inhibition” value turned out to be 3%.

On to `CN(C)c1noc(CN2CCc3ccc(F)cc3C2)n1`, for which the “% Inhibition” value was 25%.

For the compound `CC[C@H]1Cn2c(C(=O)NC3CCCCC3)cc3c(Cl)ccc(c32)O1`, the “% Inhibition” value was -7%.

Regarding `Cc1ccc(C(=O)C[n+]2cc(-c3ccc(Br)cc3)n(C)c2N)cc1`, the “% Inhibition” value is listed as -18%.

Source of the values: ChEMBL document CHEMBL4888484, “Replenishing the malaria drug discovery pipeline: Screening and hit evaluation of the MMV Hit Generation Library 1 (HGL1) against asexual blood stage Plasmodium falciparum ,using a nano luciferase reporter read-out” (2022).
